Experimental data from PubChem BioAssay AID588453 (National Center for Advancing Translational Sciences (NCATS), 2011).
In all, about 390,000 compounds went through this assay and about 4,000 (1%) were called active. The inconclusive results got no clear call from the source; some entries with a clear call stand among them for comparison. The call rests on the fitted dose curve; in most records, active means well fitted inhibition curve with a large enough effect; inconclusive means small, poorly fitted or top-dose-only effect; inactive means no such curve, though single readings can be large or run the other way. A potency beside an inconclusive call is a rough fit, not a confirmed value.
Further: nearly all actives have a fitted effect of over 65% in size.
On the % scale 0 is the no-effect control and ±100 the full control effect; potency means the concentration at half of the fitted maximal effect; tags describe the fitted curve by direction and shape.

Each compound was assayed against Thioredoxin reductase 1, cytoplasmic (Rattus norvegicus) (UniProt O89049) (assay: qHTS Assay for Inhibitors of Mammalian Selenoprotein Thioredoxin Reductase 1 (TrxR1): qHTS). Conditions: recombinant rTrxR1, NADPH fluorescence consumption, selenite substrate; series mostly up to 114 µM; activity change, negative = inhibition: at the top concentration.
Chain of UniProt O89049 (O89049 whole entry, looked up): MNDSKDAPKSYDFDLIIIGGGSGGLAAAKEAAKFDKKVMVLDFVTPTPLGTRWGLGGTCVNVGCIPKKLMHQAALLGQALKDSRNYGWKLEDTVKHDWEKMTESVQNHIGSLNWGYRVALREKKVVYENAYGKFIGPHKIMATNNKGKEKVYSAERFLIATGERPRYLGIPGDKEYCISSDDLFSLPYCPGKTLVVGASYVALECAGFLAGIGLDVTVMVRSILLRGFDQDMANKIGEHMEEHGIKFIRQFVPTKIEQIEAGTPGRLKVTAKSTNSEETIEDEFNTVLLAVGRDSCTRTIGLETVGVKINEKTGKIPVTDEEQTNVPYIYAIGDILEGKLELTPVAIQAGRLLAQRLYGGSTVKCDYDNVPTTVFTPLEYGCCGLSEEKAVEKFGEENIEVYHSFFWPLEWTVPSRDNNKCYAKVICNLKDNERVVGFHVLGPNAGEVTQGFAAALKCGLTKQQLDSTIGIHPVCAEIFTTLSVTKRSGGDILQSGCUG
Procedure, shortened: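 Rat TrxR1 (90 nM in the dispensed reagent) was pre-reduced with 400 uM NADPH for 5 min at room temperature, then incubated with compound for 15 min. After 400 uM selenite was added, NADPH fluorescence (Ex 340/Em 450 nm) was followed for 8 min.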
`CCOc1ccc(OCCC(=O)OCC(=O)Nc2cc(S(=O)(=O)N3CCOCC3)ccc2C)cc1` was tested, and the Potency was inconclusive: 50.1 µM [inhibitor, partial curve]. `COCCCNC(=O)C(=O)C1C(=O)Nc2ccccc21` (centres undefined) was tested, and the Potency was inconclusive: 70.8 µM [inhibitor, partial curve, poor fit]. With `Cc1cc(=O)oc2cc(OCC(=O)Nc3ccc(O)c(C(=O)O)c3)ccc12` the Potency was inconclusive: 39.8 µM [inhibitor, partial curve, poor fit]. `CC1CCN(c2nc(-c3ccccc3O)nc3ccccc23)CC1` was tested, and the “activity change, negative = inhibition” value was inactive: -4.51%. `Cc1ccc(SCc2[nH]nc3c2C(c2cccnc2)C(C#N)=C(N)O3)cc1` (centres undefined) was tested, and the “activity change, negative = inhibition” value was inactive: -17.3%. With `CC(C)C(=O)NC(=S)Nc1ccccc1N1CCN(C(=O)c2ccc(Cl)cc2)CC1` the Potency was inconclusive: 70.8 µM [inhibitor, single point]. In the case of `CC(NC(=O)CCl)c1ccccc1Br` (centres undefined), the Potency was inconclusive: 50.1 µM [inhibitor, partial curve]. `Nc1nnnn1/N=C/c1ccc(Br)cc1` was tested, and the “activity change, negative = inhibition” value was inactive: 5.17%. `CCc1ccc(CNC(=O)CC2C(=O)NCCN2Cc2ccccc2F)nc1` (centres undefined) was tested, and the Potency was inconclusive: 79.4 µM [inhibitor, single point]. For `CN1CCc2c(sc(NC(=O)CS(=O)(=O)c3ccc(F)cc3)c2C(N)=O)C1`, the Potency was inconclusive: 70.8 µM [inhibitor, partial curve]. `C=CCOc1cccc(C2/C(=C(/O)c3ccc(Cl)cc3)C(=O)C(=O)N2CCN2CCOCC2)c1` (centres undefined) was tested, and the Potency was inconclusive: 44.7 µM [inhibitor, partial curve]. With `Cc1ccc(-n2nc(C)c3c2OC(N)=C(C#N)C3c2ccc(C)o2)cc1` (centres undefined) the Potency was inconclusive: 39.8 µM [inhibitor, single point]. In the case of `CC(C)CN(CC(C)C)C1=N/C(=C\c2ccco2)C(=O)N1c1ccccc1`, the Potency was inconclusive: 79.4 µM [inhibitor, partial curve, poor fit]. `Cc1ccc2cccc(NC(=O)c3cccc4c(Br)cccc34)c2n1` was tested, and the Potency was inconclusive: 89.1 µM [inhibitor, single point]. `CCn1c(CNS(=O)(=O)c2ccc(Br)cc2)n[nH]c1=S` was tested, and the Potency was inconclusive: 79.4 µM [inhibitor, partial curve, poor fit]. `O=C(CN1CCN(c2ccccc2F)CC1)c1ccc2cc[nH]c2c1` was tested, and the Potency was inconclusive: 15.8 µM [inhibitor, partial curve]. For `NC(=O)c1ccc(NC(=O)COC(=O)CCN2C(=O)c3ccccc3C2=O)cc1`, the Potency was inconclusive: 79.4 µM [inhibitor, partial curve]. `CCN(C(=O)CCS(=O)(=O)c1cccc2nonc12)c1ccc(F)cc1` was tested, and the Potency was inconclusive: 17.8 µM [inhibitor, partial curve, poor fit]. With `CC(=O)N(CN1C(=O)c2ccc([N+](=O)[O-])cc2C1=O)c1ccc(F)cc1` the Potency was inconclusive: 89.1 µM [inhibitor, single point]. `C/C(=N\NC(=O)c1ccccc1)c1cc2cc([N+](=O)[O-])ccc2oc1=O` was tested, and the Potency was inconclusive: 56.2 µM [inhibitor, partial curve, poor fit]. In the case of `CCCN(CCC)CCNC(=O)C(NS(=O)(=O)c1ccc2c(c1)CCC(=O)N2)c1ccccc1` (centres undefined), the Potency was inconclusive: 15.8 µM [inhibitor, full curve, poor fit]. With `c1ccc(CCNc2ncnc3scc(C4COc5ccccc5O4)c23)cc1` (centres undefined) the “activity change, negative = inhibition” value was inactive: 2.34%. With `CCOC(=O)CSC1=NC(=O)CS1` the Potency was active: 14.1 µM. In the case of `Cc1ccc(C(=O)N2CCn3c(C)ccc3C2C)cc1` (centres undefined), the Potency was inconclusive: 28.2 µM [inhibitor, single point]. In the case of `CSc1sc(C)cc1C1C(C#N)=C(N)N(c2cccnc2)C2=C1C(=O)CCC2` (centres undefined), the Potency was inconclusive: 8.91 µM [inhibitor, partial curve, poor fit]. In the case of `COC(=O)C1=C(C)NC(=O)/C1=C/c1ccc(CNS(=O)(=O)c2ccc(C)cc2)o1`, the Potency was inconclusive: 56.2 µM [inhibitor, partial curve, poor fit]. In the case of `CC(=O)NNC(=O)CSc1nnc(-c2ccccc2)c(-c2ccccc2)n1`, the Potency was inconclusive: 56.2 µM [inhibitor, partial curve, poor fit]. `CC(=O)Oc1ccc(/C=c2\sc3ncnn3c2=O)cc1` was tested, and the Potency was inconclusive: 44.7 µM [inhibitor, partial curve, poor fit]. In the case of `O=[N+]([O-])c1ccc(OCC(O)CN(C2CCCCC2)C2CCCCC2)cc1` (centres undefined), the Potency was inconclusive: 50.1 µM [inhibitor, partial curve]. `COC(=O)c1sc2c(c1C)c(=O)n(-c1ccccc1)c(=O)n2CC(=O)Nc1cccc(C)c1` was tested, and the “activity change, negative = inhibition” value was inactive: 17.4% [at 57.1 µM]. With `COc1cccc(NC(=O)Cc2nnc(SCCOc3ccccc3)n2C)c1` the “activity change, negative = inhibition” value was inactive: 10.1% [at 57.1 µM]. For `C/C(O)=C\c1nc2ccccc2oc1=O`, the Potency was inconclusive: 70.8 µM [inhibitor, single point]. With `COc1cc(NC(=S)NCCCN2CCOCC2)cc(OC)c1OC` the Potency was inconclusive: 89.1 µM [inhibitor, partial curve, poor fit]. With `CCNC(=S)Nc1ccc(C)c(Cl)c1` the Potency was inconclusive: 79.4 µM [inhibitor, partial curve, poor fit]. In the case of `O=C(Nc1ccc2nc(-c3ccco3)[nH]c2c1)c1ccco1`, the Potency was inconclusive: 70.8 µM [inhibitor, partial curve]. `COc1cc(OC)cc(C2C(C#N)=C(N)Oc3n[nH]c(-c4cccnc4)c32)c1` (centres undefined) was tested, and the Potency was inconclusive: 31.6 µM [inhibitor, partial curve]. In the case of `Cc1nc2c(-c3ccc(F)cc3)c(C)nn2c(C)c1CCC(=O)NC(C)CCc1ccco1` (centres undefined), the Potency was active: 79.4 µM. With `O=C(NCc1ccc2c(c1)OCO2)c1cccc(S(=O)(=O)N2CCCCC2)c1` the “activity change, negative = inhibition” value was inactive: 17.8%. In the case of `Cc1sc2nc(CN3CCCC3)nc(Cl)c2c1C`, the Potency was inconclusive: 8.91 µM [inhibitor, partial curve]. `Cc1c(O)c(=O)c2ccccc2n1C` was tested, and the Potency was inconclusive: 44.7 µM [inhibitor, partial curve]. In the case of `COc1ccccc1Nc1nc(N)nc(CN(C)C2CCCCC2)n1`, the Potency was inconclusive: 79.4 µM [inhibitor, partial curve]. In the case of `CC(C)CC(=O)NC(=S)Nc1cc(C(F)(F)F)ccc1N1CCOCC1`, the Potency was inconclusive: 39.8 µM [inhibitor, single point]. In the case of `O=C(CN(C(=O)Cn1nnc(-c2cccs2)n1)c1ccc2c(c1)OCCO2)NCc1ccccc1`, the “activity change, negative = inhibition” value was inactive: 1.81% [at 57.1 µM]. In the case of `Cc1ccc(C2C3CSCC=C3C(C#N)=C(N)C2(C#N)C#N)cc1` (centres undefined), the Potency was inconclusive: 20 µM [inhibitor, partial curve, poor fit]. For `O=C(c1ccc2c(=O)n3c(nc2c1)CCCCC3)N1CCN(c2ccc([N+](=O)[O-])cc2)CC1`, the “activity change, negative = inhibition” value was inactive: 15.6% [at 57.1 µM]. `COc1ccc(C2NC(=S)NC(C)=C2C(=O)c2ccccc2)cc1OC` (centres undefined) was tested, and the Potency was inconclusive: 79.4 µM [inhibitor, single point]. With `O=C(N/N=C/C=C/c1ccco1)c1ccccc1Cl` the Potency was active: 56.2 µM. For `COc1cccc(C(=O)Oc2c(Sc3ccc(C)cc3)c(C)nn2C(C)(C)C)c1OC`, the “activity change, negative = inhibition” value was inactive: 21.5%. `COc1ccc(S(=O)(=O)N2CCN(c3nc(C)cc(C)n3)CC2)cc1` was tested, and the Potency was inconclusive: 3.98 µM [inhibitor, partial curve]. For `Nc1c(S(=O)(=O)c2ccccc2)c2nc3ccccc3nc2n1/N=C/c1ccco1`, the Potency was inconclusive: 31.6 µM [inhibitor, partial curve, poor fit]. `NC(=O)C1CCN(CC(=O)c2c[nH]c3ccc(F)cc23)CC1` was tested, and the Potency was inconclusive: 70.8 µM [inhibitor, partial curve, poor fit]. For `CCCN1C(=O)/C(=C/c2ccc(C)o2)SC1=Nc1ccc(OC)cc1`, the Potency was inconclusive: 44.7 µM [inhibitor, partial curve]. In the case of `O=C(CCl)N1CCN(S(=O)(=O)Cc2ccccc2)CC1`, the Potency was inconclusive: 11.2 µM [inhibitor, full curve]. With `Nc1nnc(-c2ccc([N+](=O)[O-])o2)s1` the Potency was inconclusive: 1.12 µM [inhibitor, single point]. `COc1ccc(N=C(C)C2=C(O)CSC2=O)cc1` was tested, and the Potency was inconclusive: 44.7 µM [inhibitor, partial curve]. For `CCOC(=O)c1[nH]c(Cc2[nH]c(C(=O)OCC)c(C)c2CCC(=O)OC)c(CCC(=O)OC)c1C`, the Potency was inconclusive: 44.7 µM [inhibitor, partial curve]. In the case of `CC(C)C(=O)Nc1ncc(C(F)(F)F)cc1Cl`, the “activity change, negative = inhibition” value was inactive: 16.4%. In the case of `Cc1ccc2c(c1)-c1c(c(C(=O)N3CCN(c4cc(C)ccc4C)CC3)nn1C)CS2`, the “activity change, negative = inhibition” value was inactive: 7.88% [at 57.1 µM]. For `CCCCC[C@@H](/C=C/C1C(=O)C=C[C@H]1C/C=C\CCCC(=O)OC)OC(C)=O` (some centres undefined), the Potency was inconclusive: 35.5 µM [inhibitor, partial curve]. For `CNCCNS(=O)(=O)c1cccc2cnccc12`, the Potency was inconclusive: 37.7 µM [inhibitor, partial curve, poor fit]. With `Cc1c(C)c2c(OCC(=O)N[C@@H](CC(C)C)C(=O)O)cc3c(c2oc1=O)CCC(C)(C)O3` the Potency was inconclusive: 79.4 µM [inhibitor, single point]. In the case of `COc1ccc(C2=NO[C@@](CC(=O)O)(C(=O)Nc3ccc4c(c3)OCCO4)C2)cc1`, the Potency was inconclusive: 28.2 µM [inhibitor, single point]. `O=C(/C=C/c1ccco1)Nc1ccc(F)cc1` was tested, and the Potency was inconclusive: 17.8 µM [inhibitor, partial curve]. In the case of `Cc1nonc1C(=O)N/N=C/c1ccc([N+](=O)[O-])o1`, the Potency was inconclusive: 12.6 µM [inhibitor, partial curve, poor fit].
